Some of the results follow. Values were computed here from the reads of four pooled replicates and scatter widely.

This note sets out measurements from the BET-seq Pho4 binding data (Le et al. 2018).

The assay deals with T1, Pho4 (S. cerevisiae) (UniProt P07270).
T1 sequence: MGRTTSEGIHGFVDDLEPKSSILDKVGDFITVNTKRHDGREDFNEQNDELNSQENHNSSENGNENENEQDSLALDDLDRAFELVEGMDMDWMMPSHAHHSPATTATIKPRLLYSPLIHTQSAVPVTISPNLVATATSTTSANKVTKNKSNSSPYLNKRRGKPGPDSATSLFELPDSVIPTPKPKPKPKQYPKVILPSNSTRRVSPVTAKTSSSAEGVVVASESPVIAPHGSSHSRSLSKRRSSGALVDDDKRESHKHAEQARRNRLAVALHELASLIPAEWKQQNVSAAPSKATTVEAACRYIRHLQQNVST
The assay is described as follows: relative binding free energy (BET-seq); higher = weaker binding. Conditions: reference: library average.
Turning to GTGGGCACGTGGTTCG, the “relative binding free energy” value is -0.06 kcal/mol.
Consider TTTTTCACGTGATAGC, for which the “relative binding free energy” value is 0.33 kcal/mol.
With GGATTCACGTGTTGTA, the “relative binding free energy” value stood at 0.37 kcal/mol.
The value for TAAGGCACGTGGATAT was -0.1 kcal/mol; that for TTTGCCACGTGCTTGT was -0.17 kcal/mol; that for TCTGACACGTGTGGTG was 0.02 kcal/mol.
As to TGGGGCACGTGAGGCT, the “relative binding free energy” value worked out at 0.1 kcal/mol.
On to TTTAACACGTGATAAG, for which the “relative binding free energy” value was 0.02 kcal/mol.
Regarding TATATCACGTGGGAAT, the “relative binding free energy” value amounted to 0.07 kcal/mol.
Regarding ATGTCCACGTGGTGGT, the “relative binding free energy” value is -0.07 kcal/mol.
As to CGTGTCACGTGTATTT, the “relative binding free energy” value amounted to 0.11 kcal/mol.
For the sequence GGTGTCACGTGGTGGT, the “relative binding free energy” value turned out to be 0.08 kcal/mol.
The value for TTAACCACGTGTGATT was 0.21 kcal/mol; that for GGTCACACGTGGGTGG was 0.05 kcal/mol.
With AGGTGCACGTGTGGGA, the “relative binding free energy” value was found to be 0 kcal/mol.
With AATTCCACGTGTGGGG, the “relative binding free energy” value was determined as 0.09 kcal/mol.
For TGATACACGTGAGGCG, the “relative binding free energy” value worked out at 0.42 kcal/mol.
With TGGTTCACGTGTGCCT, the “relative binding free energy” value stood at 0.28 kcal/mol.
AAGTGCACGTGTTTGT: the “relative binding free energy” value was -0.03 kcal/mol.
Turning to TATTTCACGTGTGTCG, the “relative binding free energy” value turned out to be 0.34 kcal/mol.
On to CGGGGCACGTGGGGAC, for which the “relative binding free energy” value is -0.12 kcal/mol.
To TATAGCACGTGATTTT belongs -0.01 kcal/mol; to GTGTGCACGTGCGCTT, -0.17 kcal/mol.
In the case of TTTGTCACGTGTTTAC, the “relative binding free energy” value was found to be 0.14 kcal/mol.
With ATATCCACGTGTTGTT, the “relative binding free energy” value is -0.05 kcal/mol.
Take GGAGTCACGTGCTGGT: the “relative binding free energy” value was 0 kcal/mol.
TATGTCACGTGTATAT: the “relative binding free energy” value is 0.04 kcal/mol.
Take GTTTACACGTGAGGTC: the “relative binding free energy” value amounted to 0.44 kcal/mol.
The value for TGGGGCACGTGGGATG was -0.15 kcal/mol.
For the sequence TGGGTCACGTGTTGAT, the “relative binding free energy” value came to 0.06 kcal/mol.
With AAACGCACGTGTTTGG, the “relative binding free energy” value is -0.02 kcal/mol.
On to AGATGCACGTGGTTAT, for which the “relative binding free energy” value was -0.1 kcal/mol.
For the sequence GTATACACGTGGGTTG, the “relative binding free energy” value is -0.12 kcal/mol.
For the sequence GTATGCACGTGTCGGC, the “relative binding free energy” value was found to be 0.21 kcal/mol.
To CAGGGCACGTGTGGAG belongs -0.01 kcal/mol; to TCATGCACGTGGGGGC, 0.01 kcal/mol; to ATTTTCACGTGATGTT, 0.31 kcal/mol.
Turning to TGGTGCACGTGCTAGC, the “relative binding free energy” value was 0.04 kcal/mol.
GTATGCACGTGGAATA: the “relative binding free energy” value came to 0.18 kcal/mol.
Consider AGGTTCACGTGGTTGC, for which the “relative binding free energy” value amounted to 0.21 kcal/mol.
On to CGTGGCACGTGCGAGG, for which the “relative binding free energy” value was -0.09 kcal/mol.
As to TTGTTCACGTGTTCAC, the “relative binding free energy” value was 0.27 kcal/mol.
In the case of ATTGACACGTGTGGTT, the “relative binding free energy” value amounted to 0.1 kcal/mol.
For GCTATCACGTGGAAGG, the “relative binding free energy” value came to 0.21 kcal/mol.
Take TTAGGCACGTGTGACT: the “relative binding free energy” value came out at 0.1 kcal/mol.
The value for AATTGCACGTGTAGAA was 0.16 kcal/mol; that for TGGGGCACGTGTAGTG was -0.02 kcal/mol; that for CAGTTCACGTGTTGAT was 0.18 kcal/mol.
Take TAGTCCACGTGGGGAG: the “relative binding free energy” value was -0.1 kcal/mol.
On to AGGTTCACGTGTTTCT, for which the “relative binding free energy” value amounted to 0.36 kcal/mol.
The value for CGTATCACGTGGGCTT was -0.04 kcal/mol.
In the case of TGGTTCACGTGCTTGA, the “relative binding free energy” value turned out to be 0.21 kcal/mol.
Turning to TTTCGCACGTGTTGTC, the “relative binding free energy” value amounted to 0.19 kcal/mol.
The value for GGGACCACGTGACGGG was 0.13 kcal/mol; that for GGGCACACGTGTGGGC was 0.04 kcal/mol; that for GGTGACACGTGGGGGT was -0.09 kcal/mol.
To AGCATCACGTGATGTT belongs 0.3 kcal/mol; to GTGTTCACGTGGCACG, 0.19 kcal/mol; to ATAGTCACGTGGTGCT, 0.06 kcal/mol.
For TCTTTCACGTGATGGC, the “relative binding free energy” value is 0.41 kcal/mol.
To ATTGTCACGTGGTTCG belongs 0.13 kcal/mol; to GTACTCACGTGATGGT, 0.49 kcal/mol; to GGTCACACGTGACGGG, 0.15 kcal/mol.
In the case of TGTTGCACGTGAGCGC, the “relative binding free energy” value worked out at 0.19 kcal/mol.
Take TTGCTCACGTGTGAGA: the “relative binding free energy” value turned out to be 0.42 kcal/mol.
On to TTTAGCACGTGTAGCA, for which the “relative binding free energy” value is -0.03 kcal/mol.
To TGTGTCACGTGAAGAT belongs 0.33 kcal/mol; to GGAAACACGTGAATGG, 0.28 kcal/mol; to GTCGTCACGTGTGCGT, 0.26 kcal/mol.
For GATGTCACGTGAGGAA, the “relative binding free energy” value turned out to be 0.4 kcal/mol.
To GTGATCACGTGAGTGC belongs 0.21 kcal/mol; to GGGGACACGTGTTTCT, -0.04 kcal/mol; to TGTATCACGTGATGAT, 0.24 kcal/mol.
As for ACGAGCACGTGGTGGA, the “relative binding free energy” value is -0.12 kcal/mol.
For ATAAACACGTGTCGGT, the “relative binding free energy” value was determined as 0.03 kcal/mol.
As to CTTGGCACGTGTGGTT, the “relative binding free energy” value was found to be 0.11 kcal/mol.
Regarding CATTGCACGTGTTTGG, the “relative binding free energy” value was -0.02 kcal/mol.
On to TGTGTCACGTGTCAGA, for which the “relative binding free energy” value was 0.13 kcal/mol.
As for GTGGACACGTGGGGGA, the “relative binding free energy” value is -0.18 kcal/mol.
To TATTGCACGTGAAAGG belongs 0.26 kcal/mol; to TCTATCACGTGGGCGT, 0.04 kcal/mol; to AGTTGCACGTGGGATA, -0.07 kcal/mol.
To TTACACACGTGGCGGT belongs -0.02 kcal/mol.
As to TTGTGCACGTGTGAAA, the “relative binding free energy” value was determined as 0.1 kcal/mol.
For the sequence TGGATCACGTGGAATG, the “relative binding free energy” value stood at 0.16 kcal/mol.
For the sequence TATCTCACGTGTGGTA, the “relative binding free energy” value came out at 0.3 kcal/mol.
In the case of GTGGGCACGTGTCCGT, the “relative binding free energy” value is -0.04 kcal/mol.
CCGGCCACGTGTGGTG: the “relative binding free energy” value was -0.06 kcal/mol.
The value for GAGATCACGTGTCAGG was 0.33 kcal/mol.
Turning to TTATTCACGTGTTCGT, the “relative binding free energy” value was 0.34 kcal/mol.
With GGTGCCACGTGGGCGT, the “relative binding free energy” value is -0.09 kcal/mol.
With TTGTTCACGTGGTGCC, the “relative binding free energy” value was found to be 0.3 kcal/mol.
For the sequence TTGGACACGTGCGTCT, the “relative binding free energy” value turned out to be 0.15 kcal/mol.
For GATGGCACGTGGGTTC, the “relative binding free energy” value was -0.08 kcal/mol.
On to GGGGGCACGTGAGTAA, for which the “relative binding free energy” value was found to be 0.16 kcal/mol.
Regarding GATTGCACGTGTGTGG, the “relative binding free energy” value was determined as 0.15 kcal/mol.
With TATATCACGTGGTCTG, the “relative binding free energy” value amounted to 0.19 kcal/mol.
The value for TTTTGCACGTGAACAG was 0.17 kcal/mol; that for GGCGTCACGTGAATTA was 0.48 kcal/mol; that for AGGGTCACGTGTTGGA was 0.09 kcal/mol.
On to ATTTGCACGTGTGAGT, for which the “relative binding free energy” value was found to be 0.09 kcal/mol.
For the sequence CTTTTCACGTGTGGTC, the “relative binding free energy” value is 0.24 kcal/mol.
GATACCACGTGGGGTT: the “relative binding free energy” value is -0.08 kcal/mol.
To TTAGTCACGTGCTGTG belongs 0.02 kcal/mol; to TATTTCACGTGAGCGA, 0.43 kcal/mol; to TGTGTCACGTGTTACA, 0 kcal/mol.
To ATTTACACGTGTTAGC belongs 0.12 kcal/mol; to TGGTACACGTGGTGCT, -0.16 kcal/mol.
Turning to TCGGTCACGTGATGCG, the “relative binding free energy” value was determined as 0.23 kcal/mol.
Consider GGTGGCACGTGAGTTG, for which the “relative binding free energy” value came out at 0.29 kcal/mol.
In the case of ATCGGCACGTGGGAGT, the “relative binding free energy” value was -0.07 kcal/mol.
In the case of TTGGACACGTGGGTAA, the “relative binding free energy” value amounted to 0.01 kcal/mol.
As for TTAAGCACGTGGTGCA, the “relative binding free energy” value was -0.22 kcal/mol.
The value for GGCTTCACGTGGATAG was 0.36 kcal/mol.
Regarding AAAAACACGTGTTTGG, the “relative binding free energy” value was -0.07 kcal/mol.
